Test results taken from paper PMC4336329 (PLoS ONE, 2015).
Screen size: about 310,000 compounds; about 2,200 (0.71%) showed an effect of 50% or more. Effects have a minus sign here. The list shows a part of the results.

Target: human ether-à-go-go-related gene (hERG) potassium channel (human, UniProt Q12809)
Test: primary screen, population patch clamp on CHO cells stably expressing hERG

human ether-à-go-go-related gene (hERG) potassium channel, sequence (Q12809 whole entry, looked up): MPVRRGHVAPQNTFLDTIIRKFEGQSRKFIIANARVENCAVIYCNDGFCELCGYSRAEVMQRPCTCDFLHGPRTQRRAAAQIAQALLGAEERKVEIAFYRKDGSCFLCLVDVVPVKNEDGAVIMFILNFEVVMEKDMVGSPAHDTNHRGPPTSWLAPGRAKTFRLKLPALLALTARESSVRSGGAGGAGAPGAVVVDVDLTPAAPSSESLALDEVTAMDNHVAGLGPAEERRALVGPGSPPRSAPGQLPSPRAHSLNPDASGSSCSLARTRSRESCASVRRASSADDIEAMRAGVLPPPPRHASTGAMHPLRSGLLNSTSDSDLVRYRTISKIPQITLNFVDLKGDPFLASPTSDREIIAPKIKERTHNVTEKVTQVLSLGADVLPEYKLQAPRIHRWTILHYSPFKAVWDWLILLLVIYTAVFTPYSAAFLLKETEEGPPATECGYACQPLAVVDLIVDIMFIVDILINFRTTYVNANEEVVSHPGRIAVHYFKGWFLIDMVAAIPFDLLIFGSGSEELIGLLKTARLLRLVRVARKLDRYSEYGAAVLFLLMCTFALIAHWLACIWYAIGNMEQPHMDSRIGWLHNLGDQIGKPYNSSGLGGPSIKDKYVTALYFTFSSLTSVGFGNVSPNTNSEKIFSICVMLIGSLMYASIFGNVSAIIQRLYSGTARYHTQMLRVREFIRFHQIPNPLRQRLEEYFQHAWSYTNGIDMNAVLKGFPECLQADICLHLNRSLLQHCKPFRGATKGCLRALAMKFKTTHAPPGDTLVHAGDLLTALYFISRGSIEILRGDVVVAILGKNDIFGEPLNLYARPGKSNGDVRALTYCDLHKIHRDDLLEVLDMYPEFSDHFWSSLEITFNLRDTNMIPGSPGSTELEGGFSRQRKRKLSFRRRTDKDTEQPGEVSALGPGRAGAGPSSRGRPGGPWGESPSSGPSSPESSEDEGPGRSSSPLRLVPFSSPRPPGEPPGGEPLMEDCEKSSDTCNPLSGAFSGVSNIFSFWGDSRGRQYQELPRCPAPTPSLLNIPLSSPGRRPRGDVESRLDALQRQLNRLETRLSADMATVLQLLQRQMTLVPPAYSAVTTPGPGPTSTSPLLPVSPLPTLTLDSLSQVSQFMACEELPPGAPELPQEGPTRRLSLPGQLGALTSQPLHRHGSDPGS

| Compound | hERG current change (%, negative = inhibition) at 1uM |
| --- | --- |
| COCCn1c(SCC(=O)NC2CC2)nc2ccccc21 | 11.9% |
| CC(NC(=O)Cn1cc([N+](=O)[O-])cn1)c1ccc(C(C)(C)C)cc1 (centres unmarked) | 4.57% |
| COc1cccc(NCc2cc3c(C(C)(C)C)nn(-c4ccccc4)c3[nH]c2=O)c1 | 14.2% |
| Cc1ccc2c(c1)c1c(n2CC(O)Cn2nc(C)c(Br)c2C)C(=O)CCC1 (centres unmarked) | 9.76% |
| COc1ccc(C(=O)O/N=C(\N)c2ccccc2Cl)cc1OC | -0.118% |
| COc1ccc(/C=C(\C#N)C(=O)OCC(=O)N(C)C2CCS(=O)(=O)C2)cc1 (centres unmarked) | -5.18% |
| COc1ccc(OC)c(S(=O)(=O)NCC(c2cccs2)N2CCc3ccccc3C2)c1 (centres unmarked) | 0.694% |
| CCN(CC)CCCNc1ncnc2ccccc12.Cl | 5.89% |
| COc1ccccc1N1CCN(C(=O)CN(C2CCCCC2)S(C)(=O)=O)CC1 | 4.65% |
| O=C(O)CCCN1C(=O)/C(=C\c2ccccc2OCc2ccccc2)SC1=S | 11.6% |
| CCOc1ccc(NC(=O)Nc2ccc(Cc3ccncc3)cc2)cc1 | 15.9% |
| O=C(ON=C1CCSCC1)c1ccccc1 | 1.48% |
| COc1ccc(OC)c(C2=NS(=O)(=O)N(C)C(C(=O)Nc3ccc(F)cc3F)=C2)c1 | 14.9% |
| Cc1cccc(C(=O)N/N=C/c2ccoc2)c1 | 12% |
| CCOc1ccc(NC(=O)[C@@H](NC(=O)OCc2ccccc2)[C@@H](C)CC)cc1 | 13.8% |
| Cc1ccc(CC(=O)Nc2cc([N+](=O)[O-])ccc2F)cc1 | 12.5% |
| Cc1ccc[n+](C(C)C(=O)Nc2ccc([N+](=O)[O-])cc2C)c1.[Br-] (centres unmarked) | 12.2% |
| O=C(NC(=S)NCCC1=CCCCC1)c1cccnc1 | 0.308% |
| O=C(/C=C/c1ccco1)c1cccnc1 | 12.3% |
| O=C(CSc1nc(O)c(C2CCCCC2)c(=O)[nH]1)NCC1CCCO1 (centres unmarked) | -2.86% |
| Cc1ccc(NC(=O)CCOc2ccccc2)cc1 | 9.04% |
| COc1ccc(Cc2nc(-c3ccc(Cl)cc3)no2)cc1 | 5.91% |

| Compound | hERG current change (%, negative = inhibition) at 1uM |
| --- | --- |
| COCc1cc(C)nc(OCC(=O)N/N=C/c2ccc(OC)c(O)c2)c1C#N | 16.4% |
| O=C(NCCCn1ccnc1)c1ccc(COc2ccccc2)o1 | -3.01% |
| O=C(Cn1cnc2c(nnn2-c2ccc(F)cc2)c1=O)N1CCCC1 | -3.92% |
| CNC(=O)CSc1nc2c([nH]c3ccccc32)c(=O)n1CCOC | -0.192% |
| CCCCCCCC(=O)N/N=C/c1ccc(Br)cc1 | 8.31% |
| Cc1nc(SCc2c(F)cccc2Cl)n[nH]1 | -5.61% |
| O=C(CCn1nnc2ccccc21)Nc1nnc(Cc2ccc(F)cc2)s1 | 0.377% |
| CCOC(=O)c1ccc(NC(=O)C2C3CCCCC32)cc1 (centres unmarked) | 9.62% |
| COc1cccc(N2CC(C(=O)NNC(=O)c3ccc(Cl)cc3)CC2=O)c1 (centres unmarked) | 6.77% |
| Cn1cnnc1SC(C(=O)Nc1cccc(C(F)(F)F)c1)c1ccccc1 (centres unmarked) | -3.8% |
| COc1ccc(/C=C2/SC(=S)N(CCCC(=O)Nc3ccc(O)cc3)C2=O)cc1 | -4.97% |
| CCOC(=O)C1(Cc2cccc(OC)c2)CCN(Cc2cnc(C)s2)CC1 | 11% |
| Cc1c(C(=O)N(CCO)Cc2ccccc2)oc2c(F)cccc12 | -3.51% |
| Cc1nc2cc(-c3ccccc3)nn2c(C)c1CCC(=O)NC(C)c1ccc2c(c1)OCCO2 (centres unmarked) | -5.37% |
| CCOC(=O)CNC(=O)C1c2ccccc2Oc2ccccc21 | 8.89% |
| C/C(=C\C(=O)C(F)(F)F)Nc1cc(C)cc(C)c1 | 13.7% |
| CN(C)CCCN(C(=O)c1ccc(S(=O)(=O)N(C)C)cc1)c1nc2ccc(F)cc2s1.Cl | 0.988% |
| COc1ccccc1OCC(=O)Nc1ccc(NC(=O)COc2ccccc2OC)cc1 | 13.7% |
| N#C/C(C(=O)NCc1ccccc1)=C1\SC(CCO)C(=O)N1c1ccccc1 (centres unmarked) | 6.42% |
| CCOC(=O)c1c(NC(=O)Cc2ccccc2)sc2c1CC(C)(C)NC2(C)C | -7.92% |
| COCc1nnc(SCC(=O)NC(C)c2ccccc2)n1-c1ccccc1 (centres unmarked) | 10.7% |
| CCCN1CCN(S(=O)(=O)c2ccc(-c3cc(C)no3)s2)CC1 | 6.29% |

| Compound | hERG current change (%, negative = inhibition) at 1uM |
| --- | --- |
| Cc1nc(NC(=O)c2cccnc2Cl)sc1C | 8.49% |
| O=C(NN1C(=O)C2C3C=CC(C4CC34)C2C1=O)c1ccc(Br)cc1 (centres unmarked) | 8.3% |
| CCOC(=O)c1c(C)nc2cc(C)ccn12 | -0.0398% |
| O=C1CC(c2ccc(F)cc2)CC2=C1C(c1ccc([N+](=O)[O-])o1)Nc1ccccc1N2 (centres unmarked) | 4.59% |
| COc1c(Br)cc([N+](=O)[O-])c(OC)c1C(=O)NC(=O)Nc1cc(Cl)cc(Cl)c1 | 10.4% |
| Cc1cc(C(=O)N/N=C/c2c(C)nn(-c3ccccc3)c2C)n[nH]1 | 11.6% |
| COC(=O)C1CN(C(=O)C(C)Oc2cc(C)ccc2C(C)C)c2ccccc2O1 (centres unmarked) | 10.3% |
| COc1ccc(-n2c(=S)[nH]c3cc(C(=O)NCc4ccco4)ccc3c2=O)c(OC)c1 | 5.6% |
| CC1CCCC(C)N1C(=O)CSCc1ccc(Cl)cc1 (centres unmarked) | -20.2% |
| NC(=O)c1ccc(SCC(=O)OCC(=O)N2CCN(C(=O)c3ccco3)CC2)c([N+](=O)[O-])c1 | 13.5% |
| CCN(CC)S(=O)(=O)c1ccc(NC(=O)c2cccnc2Cl)c(NC(=O)c2cccnc2Cl)c1 | 5.29% |
| O=C(Nc1ccc(Br)cc1)C1C2C=CC3(O2)C1C(=O)N(CCN1CCCCC1)C3C(=O)NC1CCCCC1 (centres unmarked) | 6.17% |
| COc1ccccc1/C=C/C=N/N1CCN(Cc2cccc3ccccc23)CC1 | 6.23% |
| COc1ccc(-n2c(SCC(=O)O)nnc2-c2ccc(NC(=O)c3ccccc3)cc2)cc1 | 14.7% |
| O=C(Nc1nc2ccccc2[nH]1)c1ccc(Br)o1 | -1.28% |
| Cc1ccc(S(=O)(=O)N2CCN(C(=O)c3ccc(-n4cncn4)c([N+](=O)[O-])c3)CC2)cc1C | -28.4% |
| CNC(=S)N(CCc1c(C)[nH]c2ccc(C)cc12)Cc1cccs1 | 9.37% |
| O=C(Nc1ccsc1C(=O)O)c1cccc(C(F)(F)F)c1 | 19.8% |
| O=C(COc1ccc2ccccc2c1)NNC(=O)C(=O)Nc1ccccc1 | 10.6% |
| COc1ccc(S(=O)(=O)N2CCN(c3ccccn3)CC2)cc1[N+](=O)[O-] | 0.291% |
| CN(C)S(=O)(=O)c1cccc(-c2nn(-c3ccccc3)cc2/C=C(/C#N)C(=O)NCc2ccco2)c1 | 3.96% |
| COc1ccc(C2C(C(=O)Nc3cccc(OC)c3)c3ccccc3C(=O)N2C)cc1 (centres unmarked) | -0.335% |

| Compound | hERG current change (%, negative = inhibition) at 1uM |
| --- | --- |
| O=C(c1cccc(OC2CCN(Cc3cccc(OCCO)c3)CC2)c1)N1CCCC1 | 13.6% |
| CCCCN(C(=O)NC(=O)Nc1cccc(C)c1C)S(C)(=O)=O | 13.9% |
| COc1cc(C2C(C(=O)Nc3ccc(F)cc3)=C(C)Nc3nc(CCCO)nn32)cc(OC)c1OC (centres unmarked) | 8.13% |
| COc1ccccc1NC(=O)C1CCN(S(=O)(=O)c2ccc3c(c2)CC(C)N3C(C)=O)CC1 (centres unmarked) | 9.78% |
| COc1ccccc1NS(=O)(=O)c1cccc(C(=O)OCC(=O)NC2CC2)c1 | 16.8% |
| COc1ccc(CN2CCC(n3nccc3NC(=O)C3CCCC3)CC2)c(OC)c1 | -70.6% |
| CSc1ccc(CNC(C)(C)CO)cc1.Cl | -2.43% |
| O=C(Nc1ccccc1F)C1COc2ccccc2O1 (centres unmarked) | 13.9% |
| COC(=O)c1c(NC(=O)COC(=O)CCNS(=O)(=O)c2ccc(NC(C)=O)cc2)sc(C)c1C | 5% |
| C=CCN1C(=O)c2oc3ccccc3c(=O)c2C1c1ccc(O)c(OC)c1 (centres unmarked) | 4.84% |
| COc1ccc2[nH]c(C)c(CCN3C(=O)OC(C)(C)C3(C)O)c2c1 (centres unmarked) | 11.6% |
| Cc1ncc(CN2CCCC(C(=O)c3sccc3C)C2)s1 (centres unmarked) | 12.5% |
| O=C1OCCN1CCN(CN1C(=O)CCC1=O)CN1C(=O)CCC1=O | 8.43% |
| O=C(C1CCN(S(=O)(=O)N2CCC3(CC2)OCCO3)CC1)N1CCOCC1 | 19.6% |
| COc1ccc2c(-c3ccccc3)cc(=O)[nH]c2c1 | 2.58% |
| COc1ccc(C(=O)N2CCc3cc(OC)c(OC)cc3C2c2ccc(OC)c(OC)c2)cc1OC (centres unmarked) | 12.1% |
| O=C(Cn1cnc2c(cnn2-c2ccc(Cl)cc2)c1=O)NCCc1ccccc1 | 13.8% |
| Cc1ccc(CN2CCCN(C)CC2)c(C)c1 | 9.13% |
| Cc1cc(OCC(=O)N2CCC(C(N)=O)CC2)c2c3c(c(=O)oc2c1)CCCC3 | 1.1% |
| Cc1ccc(NC(=O)COC(=O)c2ccc3c(=O)n4c(nc3c2)CCC4)c(Br)c1 | 12.3% |
